Experimental findings from paper PMC9600267, “The Antibacterial Type VII Secretion System of Bacillus subtilis: Structure and Interactions of the Pseudokinase YukC/EssB” (mBio, 2022) are described below.

In assay [1] the target is T1, YukCΔ217 (pseudokinase domain of YukC), Strep-tagged (pRSF/yukCΔ217.strep) (Bacillus subtilis 168) (UniProt P71070).
T1 sequence: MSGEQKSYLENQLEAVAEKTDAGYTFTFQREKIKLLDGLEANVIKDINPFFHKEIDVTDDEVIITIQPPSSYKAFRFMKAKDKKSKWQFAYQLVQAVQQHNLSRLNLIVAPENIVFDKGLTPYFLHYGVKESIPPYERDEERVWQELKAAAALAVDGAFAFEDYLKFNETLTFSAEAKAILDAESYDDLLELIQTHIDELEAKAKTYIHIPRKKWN
In words: copurification by two successive affinity columns; coexpression in E. coli BL21(DE3); StrepTrap, then HisTrap; 25 mM HEPES pH 8, 175 mM NaCl, 0.03% Triton X-100, 0.5 mM TCEP; SDS-PAGE (TGX stain-free) and immunoblots (anti-His6, anti-Strep); for full-length YukC from the detergent-solubilized membrane fraction.

The target in assay [2] is T2, YukC full length, C-terminally Strep-tagged (pRSF/yukCFL.strep) (Bacillus subtilis 168) (UniProt P71070).
T2 sequence: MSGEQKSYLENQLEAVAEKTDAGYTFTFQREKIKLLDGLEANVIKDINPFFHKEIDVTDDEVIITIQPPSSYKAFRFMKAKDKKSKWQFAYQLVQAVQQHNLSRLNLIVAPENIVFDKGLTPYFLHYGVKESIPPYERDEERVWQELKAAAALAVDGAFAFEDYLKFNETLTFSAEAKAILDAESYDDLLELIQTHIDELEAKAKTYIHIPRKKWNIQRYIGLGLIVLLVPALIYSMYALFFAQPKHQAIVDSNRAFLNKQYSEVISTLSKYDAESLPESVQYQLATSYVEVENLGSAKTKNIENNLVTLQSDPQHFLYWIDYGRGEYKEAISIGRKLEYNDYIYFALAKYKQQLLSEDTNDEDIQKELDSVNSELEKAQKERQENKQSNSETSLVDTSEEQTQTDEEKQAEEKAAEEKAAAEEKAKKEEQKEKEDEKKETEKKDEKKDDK
Described as above.

Assay [3] deals with T3, YukC413 (YukC lacking the last 38 residues), Strep-tagged (pRSF/yukC413.strep) (Bacillus subtilis 168) (UniProt P71070).
T3 sequence: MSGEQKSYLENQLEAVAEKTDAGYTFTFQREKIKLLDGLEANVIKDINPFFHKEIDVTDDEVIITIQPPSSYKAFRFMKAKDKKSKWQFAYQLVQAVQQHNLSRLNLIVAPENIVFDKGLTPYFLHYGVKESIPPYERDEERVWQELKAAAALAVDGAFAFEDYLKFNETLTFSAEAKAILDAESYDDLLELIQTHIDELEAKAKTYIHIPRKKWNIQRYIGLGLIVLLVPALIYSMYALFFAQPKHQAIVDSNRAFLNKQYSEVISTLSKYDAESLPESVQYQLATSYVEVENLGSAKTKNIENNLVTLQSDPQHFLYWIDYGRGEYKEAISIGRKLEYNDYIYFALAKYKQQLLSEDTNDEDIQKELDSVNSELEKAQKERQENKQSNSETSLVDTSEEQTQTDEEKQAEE
In words: copurification by two successive affinity columns; coexpression in E. coli BL21(DE3); membrane fraction solubilized with 1% Triton X-100; StrepTrap, then HisTrap; Coomassie SDS-PAGE, identities confirmed by LC-MS/MS.

Assay [4] deals with T4, YueB, Strep-tagged (pRSF/yueB.strep) (Bacillus subtilis 168) (UniProt O32101).
T4 sequence: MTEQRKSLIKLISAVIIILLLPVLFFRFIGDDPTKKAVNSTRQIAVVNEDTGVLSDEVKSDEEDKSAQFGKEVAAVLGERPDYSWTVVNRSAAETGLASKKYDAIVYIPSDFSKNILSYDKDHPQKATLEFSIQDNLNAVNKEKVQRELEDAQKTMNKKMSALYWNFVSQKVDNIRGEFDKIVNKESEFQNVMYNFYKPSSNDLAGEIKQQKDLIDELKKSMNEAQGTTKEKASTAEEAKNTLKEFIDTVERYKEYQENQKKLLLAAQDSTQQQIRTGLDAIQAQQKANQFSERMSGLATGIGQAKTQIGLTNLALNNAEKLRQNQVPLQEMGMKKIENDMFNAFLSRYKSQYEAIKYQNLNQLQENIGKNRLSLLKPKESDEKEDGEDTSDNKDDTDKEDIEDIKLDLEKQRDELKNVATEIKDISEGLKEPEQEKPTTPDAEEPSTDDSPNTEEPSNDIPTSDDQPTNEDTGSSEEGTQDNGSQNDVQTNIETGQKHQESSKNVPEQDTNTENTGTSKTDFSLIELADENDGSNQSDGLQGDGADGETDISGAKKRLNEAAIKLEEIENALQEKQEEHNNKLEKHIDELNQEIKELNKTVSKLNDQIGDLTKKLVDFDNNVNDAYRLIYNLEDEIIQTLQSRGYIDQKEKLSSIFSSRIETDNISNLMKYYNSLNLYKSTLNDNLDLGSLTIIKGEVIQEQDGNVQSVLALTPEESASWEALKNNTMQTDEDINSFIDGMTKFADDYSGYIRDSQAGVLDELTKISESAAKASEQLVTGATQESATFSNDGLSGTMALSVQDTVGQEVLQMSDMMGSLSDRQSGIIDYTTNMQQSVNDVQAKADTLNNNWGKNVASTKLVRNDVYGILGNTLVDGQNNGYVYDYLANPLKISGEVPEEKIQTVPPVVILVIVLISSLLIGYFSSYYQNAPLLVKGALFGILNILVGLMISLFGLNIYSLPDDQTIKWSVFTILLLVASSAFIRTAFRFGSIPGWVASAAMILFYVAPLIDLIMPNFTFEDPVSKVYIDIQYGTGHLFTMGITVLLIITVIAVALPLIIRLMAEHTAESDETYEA
Put plainly: copurification by two successive affinity columns; coexpression in E. coli C43(DE3); membranes solubilized with 0.5% LDAO; StrepTrap (wash with 0.004% LMNG), then HisTrap; Coomassie SDS-PAGE and immunoblots.

The target in assay [5] is T5, YueC, bacterial two-hybrid fusion (Bacillus subtilis 168) (UniProt O32100).
T5 sequence: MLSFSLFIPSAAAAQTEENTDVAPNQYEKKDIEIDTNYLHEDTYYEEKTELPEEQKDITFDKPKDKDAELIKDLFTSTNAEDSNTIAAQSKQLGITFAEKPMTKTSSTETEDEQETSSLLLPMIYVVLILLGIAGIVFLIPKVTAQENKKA
In words: two-hybrid; bacterial two-hybrid (BACTH) in E. coli BTH101; T25 (pKT25/pKNT25) and T18 (pUT18/pUT18C) fusions; spots on LB with X-Gal and IPTG, 25°C, imaged after 48 h.

The target in assay [6] is T6, YukD, bacterial two-hybrid fusion (Bacillus subtilis 168) (UniProt P71071).
T6 sequence: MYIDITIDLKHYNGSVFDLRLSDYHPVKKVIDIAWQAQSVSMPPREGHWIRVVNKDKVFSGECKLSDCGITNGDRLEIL
Described as above.

In assay [7] the target is T7, YukB, bacterial two-hybrid fusion (Bacillus subtilis 168) (UniProt C0SPA7).
T7 sequence: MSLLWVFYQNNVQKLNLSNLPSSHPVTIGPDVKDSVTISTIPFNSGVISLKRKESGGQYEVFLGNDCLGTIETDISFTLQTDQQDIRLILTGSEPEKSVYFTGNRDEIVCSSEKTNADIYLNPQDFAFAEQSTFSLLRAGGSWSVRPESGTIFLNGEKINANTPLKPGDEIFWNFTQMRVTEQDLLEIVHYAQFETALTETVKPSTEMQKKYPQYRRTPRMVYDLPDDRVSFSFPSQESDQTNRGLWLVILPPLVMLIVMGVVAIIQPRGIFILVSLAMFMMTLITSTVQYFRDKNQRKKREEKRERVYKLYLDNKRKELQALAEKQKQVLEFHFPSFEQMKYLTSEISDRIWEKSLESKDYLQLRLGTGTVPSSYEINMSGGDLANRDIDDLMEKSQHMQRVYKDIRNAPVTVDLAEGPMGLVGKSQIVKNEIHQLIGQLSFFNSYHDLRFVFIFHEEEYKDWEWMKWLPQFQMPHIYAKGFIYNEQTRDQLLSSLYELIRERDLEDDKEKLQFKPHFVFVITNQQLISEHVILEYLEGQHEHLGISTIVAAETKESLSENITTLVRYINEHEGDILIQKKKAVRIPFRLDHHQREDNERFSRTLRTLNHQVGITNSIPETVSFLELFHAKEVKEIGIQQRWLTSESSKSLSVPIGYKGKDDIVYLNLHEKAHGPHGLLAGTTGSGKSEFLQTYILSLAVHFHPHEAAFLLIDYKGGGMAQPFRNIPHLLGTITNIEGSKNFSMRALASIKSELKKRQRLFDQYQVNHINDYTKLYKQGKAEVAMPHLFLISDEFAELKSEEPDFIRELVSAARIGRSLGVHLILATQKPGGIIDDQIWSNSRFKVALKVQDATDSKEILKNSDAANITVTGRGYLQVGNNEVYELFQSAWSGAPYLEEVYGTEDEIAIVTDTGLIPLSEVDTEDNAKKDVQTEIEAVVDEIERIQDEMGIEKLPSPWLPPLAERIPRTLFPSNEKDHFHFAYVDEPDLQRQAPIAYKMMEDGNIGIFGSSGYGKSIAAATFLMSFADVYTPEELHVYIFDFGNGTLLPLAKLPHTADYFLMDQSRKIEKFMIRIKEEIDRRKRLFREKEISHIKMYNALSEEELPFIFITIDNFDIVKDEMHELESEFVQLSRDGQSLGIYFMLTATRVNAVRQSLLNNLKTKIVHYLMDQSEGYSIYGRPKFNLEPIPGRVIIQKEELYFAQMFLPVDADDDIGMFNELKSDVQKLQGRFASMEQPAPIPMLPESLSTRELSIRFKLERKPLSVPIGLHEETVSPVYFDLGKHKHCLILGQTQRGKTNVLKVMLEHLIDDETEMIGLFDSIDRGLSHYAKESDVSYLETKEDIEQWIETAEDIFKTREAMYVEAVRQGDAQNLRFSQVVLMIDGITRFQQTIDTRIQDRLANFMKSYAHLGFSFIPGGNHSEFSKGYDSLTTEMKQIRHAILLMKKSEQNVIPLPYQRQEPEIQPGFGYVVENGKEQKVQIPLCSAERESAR
The assay is described as above.

Results are given in words; binding and its absence hold for the method and conditions named. Some results given as binding are weak or reduced against the parent protein; the word gives no strength. Tags and fused reporters may be left off the sequences shown.

B1: YukBFHA, His6-tagged (pCDF/yukBΔ256B.his) (domain or fragment, UniProt C0SPA7 1-256)
chain: MSLLWVFYQNNVQKLNLSNLPSSHPVTIGPDVKDSVTISTIPFNSGVISLKRKESGGQYEVFLGNDCLGTIETDISFTLQTDQQDIRLILTGSEPEKSVYFTGNRDEIVCSSEKTNADIYLNPQDFAFAEQSTFSLLRAGGSWSVRPESGTIFLNGEKINANTPLKPGDEIFWNFTQMRVTEQDLLEIVHYAQFETALTETVKPSTEMQKKYPQYRRTPRMVYDLPDDRVSFSFPSQESDQTNRGLWLVILPPLVM
For B1, the binding result in assay [1] and in assay [2] was “binds” throughout.

B2: YukE, His6-tagged (pET15b/yukE.his) (protein, UniProt C0SP85 1-97)
chain: MAGLIRVTPEELRAMAKQYGVESQEVLNQVDRLNRMISDLKSMWEGASSEAFADQYEQLKPSFIKMSDLLQDVNQQLDQTANTLESTDQDIANQIRG
B2: the binding entry in assay [3] is given as “binds”.

B3: YukC full length, His6-tagged (pET15b/yukCFL.his) (protein, UniProt P71070 1-451)
chain: T2 sequence
Regarding B3, in assay [4], the binding entry is on record as “binds”.

B4: YukD, bacterial two-hybrid fusion (protein, UniProt P71071 1-79)
chain: T6 sequence
For the molecule B4, the binding entry in assay [5] is “binds”; in assay [6], “no binding”; in assay [7], “no binding”.
